The other results are listed elsewhere or left out.

For the assay, the target named is T1, MBP-FoxP1dN (Mus musculus, UniProt P58462 326-579).
T1 sequence: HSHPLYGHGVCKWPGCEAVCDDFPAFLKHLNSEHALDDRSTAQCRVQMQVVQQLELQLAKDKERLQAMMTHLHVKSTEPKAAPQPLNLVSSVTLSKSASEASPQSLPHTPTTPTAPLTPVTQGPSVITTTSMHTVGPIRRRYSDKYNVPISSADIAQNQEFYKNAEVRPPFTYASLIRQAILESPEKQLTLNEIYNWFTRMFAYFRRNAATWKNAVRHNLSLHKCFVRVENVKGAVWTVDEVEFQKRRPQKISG
Nature of the assay: PD-seq (MBP pull-down with sequencing); 20 mM Tris-HCl pH 7.5, 100 mM NaCl, 1.5 mM MgCl2, 0.4 uM protein, 0.1 uM dsDNA library, 30 min, room temperature, amylose pull-down; high values mean tight binding. As to conditions: protein: recombinant; tags: His6-MBP; chain copies: 2; dsDNA, one strand shown. In short, it runs like this:
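The N-terminus-lacking fragment of mouse FoxP3 or FoxP1 carried a His6-MBP tag and was expressed in E. coli. At 0.4 µM it was incubated with 0.1 µM Klenow-filled degenerate double-stranded DNA library for 30 min at room temperature in Tris pH 7.5 buffer with NaCl and MgCl2, and complexes were caught on amylose resin, washed three times, released with proteinase K, PCR-barcoded and Illumina-sequenced. Binding is reads-per-million enrichment of pull-down over input with replicates pooled.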
As for “GATGATTGTTCTCCCAGCTGATGAATTATCAGCCTCGAGTAAACAAATTTTCCTAATCTTTCTGTTCAAGCGCCATCTAC”, the binding signal was 0.932 RPM ratio (pull-down/input).
For “GATGATTGTTCTCCCAGCTGATGAATTTGGGTGGTCGAGTAAACAAATTTTCCTAATCTTTCTGTTCAAGCGCCATCTAC”, the binding signal was 0.809 RPM ratio (pull-down/input).
Take “GATGATTGTTCTCCCAGCTGATGAATTCAGAACCTCGAGTAAACAAATTTTCCTAATCTTTCTGTTCAAGCGCCATCTAC”: the binding signal was 0.767 RPM ratio (pull-down/input).
For the sequence “GATGATTGTTCTCCCAGCTGATGAATTGTAGTACTCGAGTAAACAAATTTTCCTAATCTTTCTGTTCAAGCGCCATCTAC”, the binding signal is 1.11 RPM ratio (pull-down/input).
The result for “GATGATTGTTCTCCCAGCTGATGAATTGACATCGTCGAGTAAACAAATTTTCCTAATCTTTCTGTTCAAGCGCCATCTAC” reads 1.21 RPM ratio (pull-down/input).
Consider “GATGATTGTTCTCCCAGCTGATGAATTAGTTTTTTCGAGTAAACAAATTTTCCTAATCTTTCTGTTCAAGCGCCATCTAC”, for which the binding signal is 1.19 RPM ratio (pull-down/input).
For “GATGATTGTTCTCCCAGCTGATGAATTAACACGGTCGAGTAAACAAATTTTCCTAATCTTTCTGTTCAAGCGCCATCTAC”, the binding signal was 0.913 RPM ratio (pull-down/input).
For the sequence “GATGATTGTTCTCCCAGCTGATGAATTGGTCTGTTCGAGTAAACAAATTTTCCTAATCTTTCTGTTCAAGCGCCATCTAC”, the binding signal was 0.824 RPM ratio (pull-down/input).
Then “GATGATTGTTCTCCCAGCTGATGAATTATGTTGCTCGAGTAAACAAATTTTCCTAATCTTTCTGTTCAAGCGCCATCTAC”, with 1.59 RPM ratio (pull-down/input).
Take “GATGATTGTTCTCCCAGCTGATGAATTAGAATTGTCGAGTAAACAAATTTTCCTAATCTTTCTGTTCAAGCGCCATCTAC”: the binding signal was 0.977 RPM ratio (pull-down/input).
As for “GATGATTGTTCTCCCAGCTGATGAATTCGGCAGTTCGAGTAAACAAATTTTCCTAATCTTTCTGTTCAAGCGCCATCTAC”, the binding signal is 0.783 RPM ratio (pull-down/input).
Then “GATGATTGTTCTCCCAGCTGATGAATTAGTAGCGTCGAGTAAACAAATTTTCCTAATCTTTCTGTTCAAGCGCCATCTAC”, with 0.975 RPM ratio (pull-down/input); and “GATGATTGTTCTCCCAGCTGATGAATTTGTATAGTCGAGTAAACAAATTTTCCTAATCTTTCTGTTCAAGCGCCATCTAC”, with 1.26 RPM ratio (pull-down/input).
The result for “GATGATTGTTCTCCCAGCTGATGAATTGGTGTGCTCGAGTAAACAAATTTTCCTAATCTTTCTGTTCAAGCGCCATCTAC” reads 0.936 RPM ratio (pull-down/input).
Turning to “GATGATTGTTCTCCCAGCTGATGAATTTAACGACTCGAGTAAACAAATTTTCCTAATCTTTCTGTTCAAGCGCCATCTAC”, the binding signal is 0.649 RPM ratio (pull-down/input).
For “GATGATTGTTCTCCCAGCTGATGAATTCAAAAAGTCGAGTAAACAAATTTTCCTAATCTTTCTGTTCAAGCGCCATCTAC”, the binding signal was 0.844 RPM ratio (pull-down/input).
Regarding “GATGATTGTTCTCCCAGCTGATGAATTGAGACTTTCGAGTAAACAAATTTTCCTAATCTTTCTGTTCAAGCGCCATCTAC”, the binding signal was 0.884 RPM ratio (pull-down/input).
The result for “GATGATTGTTCTCCCAGCTGATGAATTAGGAAGATCGAGTAAACAAATTTTCCTAATCTTTCTGTTCAAGCGCCATCTAC” reads 0.882 RPM ratio (pull-down/input); that for “GATGATTGTTCTCCCAGCTGATGAATTGGGGGTTTCGAGTAAACAAATTTTCCTAATCTTTCTGTTCAAGCGCCATCTAC”, 0.804 RPM ratio (pull-down/input).
“GATGATTGTTCTCCCAGCTGATGAATTATACAATTCGAGTAAACAAATTTTCCTAATCTTTCTGTTCAAGCGCCATCTAC”: the binding signal was 1.4 RPM ratio (pull-down/input).
Turning to “GATGATTGTTCTCCCAGCTGATGAATTTGGAAGTTCGAGTAAACAAATTTTCCTAATCTTTCTGTTCAAGCGCCATCTAC”, the binding signal was 0.915 RPM ratio (pull-down/input).
In the case of “GATGATTGTTCTCCCAGCTGATGAATTTAGAACCTCGAGTAAACAAATTTTCCTAATCTTTCTGTTCAAGCGCCATCTAC”, the binding signal was 0.936 RPM ratio (pull-down/input).
With “GATGATTGTTCTCCCAGCTGATGAATTAATACCCTCGAGTAAACAAATTTTCCTAATCTTTCTGTTCAAGCGCCATCTAC”, the binding signal is 1.06 RPM ratio (pull-down/input).
Regarding “GATGATTGTTCTCCCAGCTGATGAATTGAGTTATTCGAGTAAACAAATTTTCCTAATCTTTCTGTTCAAGCGCCATCTAC”, the binding signal was 1.06 RPM ratio (pull-down/input).
Take “GATGATTGTTCTCCCAGCTGATGAATTCGCTCGGTCGAGTAAACAAATTTTCCTAATCTTTCTGTTCAAGCGCCATCTAC”: the binding signal was 0.762 RPM ratio (pull-down/input).
Take “GATGATTGTTCTCCCAGCTGATGAATTCGAGCCTTCGAGTAAACAAATTTTCCTAATCTTTCTGTTCAAGCGCCATCTAC”: the binding signal is 0.862 RPM ratio (pull-down/input).
In the case of “GATGATTGTTCTCCCAGCTGATGAATTGGATAGCTCGAGTAAACAAATTTTCCTAATCTTTCTGTTCAAGCGCCATCTAC”, the binding signal is 0.85 RPM ratio (pull-down/input).
Regarding “GATGATTGTTCTCCCAGCTGATGAATTGCAAATATCGAGTAAACAAATTTTCCTAATCTTTCTGTTCAAGCGCCATCTAC”, the binding signal is 1.85 RPM ratio (pull-down/input).
As for “GATGATTGTTCTCCCAGCTGATGAATTATAGGATTCGAGTAAACAAATTTTCCTAATCTTTCTGTTCAAGCGCCATCTAC”, the binding signal was 0.909 RPM ratio (pull-down/input).
Turning to “GATGATTGTTCTCCCAGCTGATGAATTATTGGCATCGAGTAAACAAATTTTCCTAATCTTTCTGTTCAAGCGCCATCTAC”, the binding signal was 1.31 RPM ratio (pull-down/input).
The result for “GATGATTGTTCTCCCAGCTGATGAATTTCTACGATCGAGTAAACAAATTTTCCTAATCTTTCTGTTCAAGCGCCATCTAC” reads 0.948 RPM ratio (pull-down/input); that for “GATGATTGTTCTCCCAGCTGATGAATTGGACCCCTCGAGTAAACAAATTTTCCTAATCTTTCTGTTCAAGCGCCATCTAC”, 0.748 RPM ratio (pull-down/input).

Values taken from paper PMC12820563, “FoxP3 forms a head-to-head dimer in vivo and stabilizes its multimerization on adjacent microsatellites”.
